Reference: the supplement of paper PMC10126150
Values marked as one replicate rest on one cluster of the flow cell; about a third of the high ones do not repeat.

Tested on: ATP
Assay: switch fluorescence ratio, 500 uM ATP over buffer (Cy3 cluster intensity, sum of 5 cycles each) (fold (ratio)); higher = stronger signal-on switching upon ATP binding; sequences stand for … in TCGTCGGCAGCGTCAGATGTGTATAAGAGACAGTTTTTTTTTTTTTTTTTTTTTTTTT…TC
Conditions: aptamer strand: ATP DNA aptamer (quencher-CACCTGGGGGAGTATTGCGGAGGAAGG + anchor), 100 nM annealed; ATP concentration: 500 uM; one replicate
In short: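 For every switch-domain sequence, the fluorescence ratio is the mean of per-cluster values, each being summed target-cycle Cy3 intensity over summed buffer-cycle Cy3 intensity. Clusters outside 100-1000 RFU were excluded. On a modified Illumina MiSeq flow-cell, the Cy3-labelled switching-strand clusters were annealed to 100 nM quencher-labelled ATP aptamer, imaged in selection buffer and then after 15 min with 500 uM ATP at 22 °C. Five such cycles were run, with NaOH stripping and re-annealing between them.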
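Also: ATP exposure 15 min at 22 °C before imaging.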

| Sequence | switch fluorescence ratio |
| --- | --- |
| GAGTAATGGA | 1.02 |
| GTCAACTCGC | 0.965 |
| AGGTCGCGC | 0.975 |
| CACGAGTGCT | 0.989 |
| GTGAGGGAAA | 0.965 |
| CTAACACCGT | 0.941 |
| AGGAATAGGA | 0.993 |
| CGTCGGCAGC | 0.998 |
| GGTGGGTCAT | 1.06 |
| ACAGGGGACA | 1.06 |
| TTAGAGGCCT | 1 |
| AGTTCCCTAG | 0.988 |
| CAAGCAATCC | 2.25 |
| CAGAATATGG | 0.929 |
| GCTGTGTATT | 0.994 |
| CAAGAAAC | 0.993 |
| TTAGGTATAA | 0.981 |
| TTCGGAGATC | 0.991 |
| AAGCGTAAGA | 1.03 |
| CTCCACTAAT | 1.87 |
| ATTATAGGTC | 1.04 |
| AAGTCACCTT | 1.1 |
| TCCCTAGTGG | 1.01 |

| Sequence | switch fluorescence ratio |
| --- | --- |
| AGCGGGGGCG | 0.98 |
| GCTGTGTCTC | 0.99 |
| TACACGTTGT | 1.03 |
| TGGCCTAAGT | 0.987 |
| TATTGATTCT | 0.983 |
| ATCCATGAAC | 0.983 |
| TTCCCATAGC | 1.17 |
| AGTATAAGGA | 0.971 |
| TTCGCCCGTG | 1.04 |
| TCTTAGGGGC | 1.01 |
| TAATGCGATA | 1.05 |
| CATGGGACCT | 1.11 |
| TATCGAGGA | 0.983 |
| AGTTCCGGTC | 1.09 |
| ACCGCCTCTG | 1.78 |
| TTTTTGAACA | 1.01 |
| GTCCTCGAAT | 1.06 |
| AATAGATTGT | 0.978 |
| ATCTCACACA | 0.968 |
| GGTATCGGGC | 1.01 |
| GCAACCGTGC | 1.08 |
| AGGTATCCAA | 0.965 |
| TGGAATGCAA | 1.09 |

| Sequence | switch fluorescence ratio |
| --- | --- |
| AGGGCCGGCT | 0.942 |
| TATCACCACT | 1.03 |
| TGCAGGGAGC | 0.987 |
| TGATATGTCC | 1.04 |
| CGGAACAGCT | 0.949 |
| AGGTGCTGAA | 1.01 |
| GGCGCGAAGG | 0.976 |
| GTCCAATTAG | 1.03 |
| CCTGCTGGGA | 1.01 |
| CCGCGGAAAT | 1.01 |
| AGCTCAAGTG | 1.01 |
| TCCCTTGAGG | 0.995 |
| CAGTGGTATT | 0.985 |
| TCGTATTTAA | 1.02 |
| TCTCCACCTT | 1.59 |
| ATATAGCTGC | 1.01 |
| TTAACAGTTA | 0.968 |
| CAAGCGGAAA | 0.98 |
| TATGTTGTTC | 0.985 |
| GCCTCAACTC | 1.05 |
| GTGTGACGCA | 1.05 |
| TCCGTGGAAT | 1.01 |
| CACGTAGGCG | 1.04 |

| Sequence | switch fluorescence ratio |
| --- | --- |
| AACTTTACGG | 1.23 |
| AGTAGCATTG | 1 |
| CGTAATCGAG | 1.11 |
| ATTCTTTCGT | 0.99 |
| AAATAGGTGT | 1.1 |
| CCTCGCATAG | 3.73 |
| CGCGGCGAAC | 1.03 |
| AAGGTCCTTA | 0.973 |
| TTCACGGGGT | 1 |
| GAGAGGAAGC | 0.963 |
| GTATTGCATA | 0.98 |
| AGAATATGTA | 1.01 |
| ATGCCGACGA | 0.92 |
| CCTTCGAAGC | 2.4 |
| CGATCACGCT | 1.07 |
| TAAAACGGTT | 0.947 |
| CGAGCTGCCG | 1.12 |
| GCCTATGGGG | 1.01 |
| AGGCTAGCTG | 0.999 |
| AGGGTTATAT | 1.03 |
| CAACTGCCAG | 1.05 |
| TGGTATTTGT | 1.01 |
| GGATTTCGCC | 1.01 |

| Sequence | switch fluorescence ratio |
| --- | --- |
| ATAAATGGTC | 1.04 |
| CAGTAGCCAG | 0.987 |
| ACGGCGAAGT | 1.03 |
| ACAGGTTGTC | 1.06 |
| GCGTAGTA | 1.01 |
| CATCTGTTAC | 2.46 |
| TCTGCCAGGT | 1.37 |
| TTGAAGGTG | 1.3 |
| CGCCAGGGTG | 1.09 |
| TTTTGTGAAC | 1.01 |
| TTTGGGGGT | 0.996 |
| ACATAAATC | 1.03 |
| TCGTATGCCT | 0.96 |
| GAACTAAACG | 1.02 |
| GTCATGGAAT | 0.98 |
| CATCATAGGT | 1.06 |
| TTCCGAAGAG | 1.54 |
| CTTATCCATC | 0.97 |
| TACAGCTGTA | 1.02 |
| CGCAGATGTT | 0.974 |
| ATGACTGAAC | 1.29 |
| AAGAAGGCCC | 1.07 |
| ACGAAATTTT | 1.02 |

| Sequence | switch fluorescence ratio |
| --- | --- |
| ATATACTCAA | 1.03 |
| GGTTTGTCGC | 0.98 |
| TACAAGGTTT | 1.01 |
| TGGGACTTGC | 0.967 |
| TTGTTGTGCC | 1.02 |
| ACCATCAGAC | 1.18 |
| TTTTAAGG | 0.964 |
| CGGGGTGAAG | 0.98 |
| CACCTATATT | 1.05 |
| GGTTGCCATT | 1 |
| GCTCTGAAAA | 0.982 |
| CCAAAAAAGT | 1 |
| GATACTAACA | 1.15 |
| CCTTCTGATG | 1.79 |
| GGAATGCAGC | 0.997 |
| ACGTGCCTT | 0.998 |
| GCTGCGTGGC | 1.03 |
| CTGCCAGGGC | 1.1 |
| CGTCATAGA | 0.98 |
| ATGTGTCCAC | 0.995 |
| TGAATCTTGT | 0.967 |
| CCTGCATCG | 1.05 |
| CATTGCGAGC | 1.04 |

| Sequence | switch fluorescence ratio |
| --- | --- |
| TCCATGTCAA | 1.08 |
| CTGGATTATG | 0.978 |
| CTCCACTGGT | 1.16 |
| GAATGGAGAT | 0.983 |
| GGACTGGACC | 1.04 |
| AGAAATTATG | 1.01 |
| TGCCCGGCGG | 0.946 |
| CGGGAGTCTA | 1.09 |
| ACCGCCAGTC | 1.26 |
| GTTTCCTGGA | 0.978 |
| TTTTAGCTGC | 1.08 |
| CGTAAAATC | 1.03 |
| TCCTACATGC | 1.64 |
| TATGGGTATC | 0.951 |
| TACAGGAATC | 1.06 |
| ATTACGGGTC | 0.961 |
| AGCCGATTGG | 1.01 |
| GACGAGTACT | 1.15 |
| TTTTGAATAC | 1.25 |
